# Test results from patent US20250243260A1 (ALPINE IMMUNE SCIENCES, published 2025).
# Changes are numbered by the printed parent chain. Numbers in names are those of the source.
# B1: CD80_189 variant CD80 IgV-Fc (E10G, V11W, M47V, L85E) (Fc fusion)
# chain: VIHVTKEVKGWATLSCGHNVSVEELAQTRIYWQKEKKMVLTMMSGDVNIWPEYKNRTIFDITNNLSIVILALRPSDEGTYECVVEKYEKDAFKREHLAEVTLSVKADGSGGGGS[omitted - human IgG4 Fc with S228P (EU numbers)]
# B2: CD80_190 variant CD80 IgV-Fc (T28Y, M47L) (Fc fusion)
# chain: B1 chain with G10E, W11V, T28Y, V47L, E85L
# B3: CD80_191 variant CD80 IgV-Fc (V11Y, T28Y, M47L, V68L, L85E) (Fc fusion)
# chain: B1 chain with G10E, W11Y, T28Y, V47L, V68L
# B4: CD80_192 variant CD80 IgV-Fc (E7N, E35D, T101R) (Fc fusion)
# chain: B1 chain with E7N, G10E, W11V, E35D, V47M, E85L, T101R
# B5: CD80_193 variant CD80 IgV-Fc (V11Y, M42W, T62A, L85E) (Fc fusion)
# chain: B1 chain with G10E, W11Y, M42W, V47M, T62A
# B6: CD80_194 variant CD80 IgV-Fc (V11Y, M42W, T62A) (Fc fusion)
# chain: B1 chain with G10E, W11Y, M42W, V47M, T62A, E85L
# B7: CD80_196 variant CD80 IgV-Fc (V11Y, M42W, E52K, T62A, L85E) (Fc fusion)
# chain: B1 chain with G10E, W11Y, M42W, V47M, E52K, T62A
# B8: CD80_197 variant CD80 IgV-Fc (V11Y, E35D, Y87Q, T101R) (Fc fusion)
# chain: B1 chain with G10E, W11Y, E35D, V47M, E85L, Y87Q, T101R
# B9: CD80_198 variant CD80 IgV-Fc (H18Y, A26E, R29S, E35D, M47L, V68M, A71G, E77G, D90G) (Fc fusion)
# chain: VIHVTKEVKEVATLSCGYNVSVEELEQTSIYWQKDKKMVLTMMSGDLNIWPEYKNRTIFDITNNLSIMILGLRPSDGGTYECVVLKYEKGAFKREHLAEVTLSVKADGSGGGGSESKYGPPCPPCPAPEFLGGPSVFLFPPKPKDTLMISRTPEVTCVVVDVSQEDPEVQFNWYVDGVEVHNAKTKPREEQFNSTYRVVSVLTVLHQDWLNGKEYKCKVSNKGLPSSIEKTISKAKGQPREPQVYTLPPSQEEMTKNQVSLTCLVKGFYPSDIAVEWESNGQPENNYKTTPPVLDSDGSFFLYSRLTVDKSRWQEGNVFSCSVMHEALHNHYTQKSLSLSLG
# B10: CD80_199 variant CD80 IgV-Fc (E10G, H18Y) (Fc fusion)
# chain: B1 chain with W11V, H18Y, V47M, E85L
# B11: CD80_200 variant CD80 IgV-Fc (K9N, E10R, H18V, T28Y, A71G) (Fc fusion)
# chain: B1 chain with K9N, G10R, W11V, H18V, T28Y, V47M, A71G, E85L
# B12: CD80_201 variant CD80 IgV-Fc (E10G, H18Y, T28Y, M47W, T62S) (Fc fusion)
# chain: B1 chain with W11V, H18Y, T28Y, V47W, T62S, E85L
# B13: CD80_202 variant CD80 IgV-Fc (E7H, H18L, V20I, T28Y, D46S, A71G) (Fc fusion)
# chain: B1 chain with E7H, G10E, W11V, H18L, V20I, T28Y, D46S, V47M, A71G, E85L
# B14: CD80_203 variant CD80 IgV-Fc (K9N, E10A, V11W, H18F, T28H, M47L, T62E, R73D) (Fc fusion)
# chain: B1 chain with K9N, G10A, H18F, T28H, V47L, T62E, R73D, E85L
# B15: CD80_165 variant CD80 IgV-Fc (V11Y, M47V, F59S, L85E) (Fc fusion)
# chain: B1 chain with G10E, W11Y, F59S
# B16: CD80_204 variant CD80 IgV-Fc (H18V, V20I, T28Y, E35G, M47V, R73E) (Fc fusion)
# chain: B1 chain with G10E, W11V, H18V, V20I, T28Y, E35G, R73E, E85L
# B17: CD80_205 variant CD80 IgV-Fc (E10G, D46K, L85E) (Fc fusion)
# chain: B1 chain with W11V, D46K, V47M
# B18: CD80_206 variant CD80 IgV-Fc (E10G, H18T, Q27T, D46E, M47L) (Fc fusion)
# chain: B1 chain with W11V, H18T, Q27T, D46E, V47L, E85L
# B19: CD80_207 variant CD80 IgV-Fc (E35D, V68T, T101K) (Fc fusion)
# chain: B1 chain with G10E, W11V, E35D, V47M, V68T, E85L, T101K
# B20: CD80_208 variant CD80 IgV-Fc (V11Y, E35G, M42G, F59S) (Fc fusion)
# chain: B1 chain with G10E, W11Y, E35G, M42G, V47M, F59S, E85L
# B21: CD80_209 variant CD80 IgV-Fc (V11Y, T28R, E35G, M47L, F59S) (Fc fusion)
# chain: B1 chain with G10E, W11Y, T28R, E35G, V47L, F59S, E85L
# Target: CD28 on Jurkat/IL2-reporter cells (UniProt P10747 19-220, limits assumed)
# Assay: cell-based or functional assay
Binder,Fold Increase over WT at 50 nM,Rel. Luminescence Units (RLU) 2 nM,Rel. Luminescence Units (RLU) 10 nM,Rel. Luminescence Units (RLU) 50 nM,Rel. Luminescence Units (RLU) 250 nM
B1,1.33 fold,2760 RLU,2880 RLU,3250 RLU,3100 RLU
B2,1.17 fold,2500 RLU,2570 RLU,2850 RLU,3320 RLU
B3,0.99 fold,2560 RLU,2540 RLU,2410 RLU,2650 RLU
B4,1.07 fold,2430 RLU,2410 RLU,2610 RLU,2800 RLU
B5,0.94 fold,2220 RLU,2420 RLU,2300 RLU,2490 RLU
B6,1.07 fold,2180 RLU,2130 RLU,2620 RLU,3320 RLU
B7,0.93 fold,2290 RLU,2280 RLU,2270 RLU,2480 RLU
B8,2.28 fold,2320 RLU,2770 RLU,5570 RLU,10300 RLU
B9,1.39 fold,2460 RLU,2440 RLU,3400 RLU,5420 RLU
B10,1.4 fold,2480 RLU,2620 RLU,3420 RLU,6050 RLU
B11,2.58 fold,3310 RLU,4560 RLU,6300 RLU,9620 RLU
B12,2.81 fold,3540 RLU,4200 RLU,6860 RLU,10400 RLU
B13,1.46 fold,3380 RLU,3070 RLU,3570 RLU,4680 RLU
B14,3.62 fold,3840 RLU,6280 RLU,8830 RLU,11900 RLU
B15,1.35 fold,2860 RLU,3120 RLU,3300 RLU,–
B16,1.15 fold,2740 RLU,2830 RLU,2800 RLU,4010 RLU
B17,0.95 fold,2700 RLU,2590 RLU,2310 RLU,2500 RLU
B18,1.31 fold,2820 RLU,2710 RLU,3200 RLU,5630 RLU
B19,0.89 fold,2330 RLU,2270 RLU,2170 RLU,2550 RLU
B20,0.88 fold,2450 RLU,2210 RLU,2160 RLU,2230 RLU
B21,0.89 fold,2510 RLU,2200 RLU,2180 RLU,2300 RLU
